Results from patent US20230365642A1 (published 2023).
Like-named read-outs stand apart in the source and are kept apart here. One block for each binder: values may come before it.

How the values were obtained:
[1] = biological target: T1, IL2R beta (CD122) (UniProt P14784 27-239); test: BLI
T1 chain: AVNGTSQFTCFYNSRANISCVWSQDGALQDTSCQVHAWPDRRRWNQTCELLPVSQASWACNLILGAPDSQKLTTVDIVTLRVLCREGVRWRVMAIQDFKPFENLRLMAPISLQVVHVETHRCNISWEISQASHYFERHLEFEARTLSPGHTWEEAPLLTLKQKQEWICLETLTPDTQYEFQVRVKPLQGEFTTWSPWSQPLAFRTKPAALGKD

[2] = biological target: T1, IL2R beta (CD122); test: BLI Octet
[3] = biological target: T2, IL13Rα Protein, Human, Recombinant, His Tag (human IL13Rα1) (human, UniProt P78552 22-343); test: SPR
T2 chain: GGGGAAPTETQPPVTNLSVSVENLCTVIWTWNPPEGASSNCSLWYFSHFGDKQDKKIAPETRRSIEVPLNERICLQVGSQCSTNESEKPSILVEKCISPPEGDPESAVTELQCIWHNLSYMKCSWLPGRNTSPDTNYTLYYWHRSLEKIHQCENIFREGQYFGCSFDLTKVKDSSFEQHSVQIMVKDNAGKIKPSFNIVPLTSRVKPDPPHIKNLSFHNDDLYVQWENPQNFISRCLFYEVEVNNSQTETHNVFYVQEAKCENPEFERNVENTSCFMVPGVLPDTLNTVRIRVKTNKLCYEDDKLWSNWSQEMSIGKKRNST

[4] = biological target: T3, IL13Rα2 Protein, Human, Recombinant, His Tag (human, UniProt Q14627 27-343); test: SPR
T3 chain: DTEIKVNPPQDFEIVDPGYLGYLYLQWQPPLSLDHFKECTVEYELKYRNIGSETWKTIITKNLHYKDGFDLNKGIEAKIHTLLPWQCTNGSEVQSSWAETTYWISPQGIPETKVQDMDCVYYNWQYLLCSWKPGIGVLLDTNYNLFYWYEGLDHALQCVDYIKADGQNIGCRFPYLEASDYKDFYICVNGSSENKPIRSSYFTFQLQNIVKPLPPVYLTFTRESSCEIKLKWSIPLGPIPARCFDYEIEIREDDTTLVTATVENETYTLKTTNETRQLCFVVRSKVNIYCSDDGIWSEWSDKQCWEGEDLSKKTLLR

[5] = biological target: T2, IL13Rα Protein, Human, Recombinant, His …; test: SPR
[6] = biological target: T3, IL13Rα2 Protein, Human, Recombinant, …; test: SPR
[7] = biological target: T4, IL13Rα2 Protein, Mouse, Recombinant, His Tag (mouse, UniProt O88786 22-334); test: ELISA
T4 chain: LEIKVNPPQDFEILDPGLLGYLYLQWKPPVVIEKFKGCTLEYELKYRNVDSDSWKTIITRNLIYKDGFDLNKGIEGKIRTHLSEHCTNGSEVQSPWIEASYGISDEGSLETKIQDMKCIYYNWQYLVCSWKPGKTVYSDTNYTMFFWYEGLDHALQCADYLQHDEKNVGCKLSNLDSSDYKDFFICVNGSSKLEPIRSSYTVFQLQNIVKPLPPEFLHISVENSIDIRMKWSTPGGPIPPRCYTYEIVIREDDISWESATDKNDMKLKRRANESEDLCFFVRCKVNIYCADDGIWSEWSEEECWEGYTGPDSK

[8] = biological target: T3, IL13Rα2 Protein, Human, Recombinant, …; test: ELISA

Kd [1]: 6.6 nM
B1: MDNA11 (3rd Gen.) (protein)
chain: MYRMQLLSCIALSLALVTNSAPTSSSTKKTQLQLEHLLLDLQMILNGINNYKNPKLTRMLTAKFYMPKKATELKHLQCLEEALKPLEEVLNLAQSKNFHFDPRDVVSNINVFVLELKGSETTFMCEYADETATIVEFLNRWITFSQSIISTLTGGGGSGGGGSGGGGS[about 600 residues not listed]

Kd [2]: 6.6 nM
B2: MDNA11 (protein)
chain: MYRMQLLSCIALSLALVTNSAPTSSSTKKTQLQLEHLLLDLQMILNGINNYKNPKLTRMLTAKFYMPKKATELKHLQCLEEALKPLEEVLNLAQSKNFHFDPRDVVSNINVFVLELKGSETTFMCEYADETATIVEFLNRWITFSQSIISTLTGGGGSGGGGSGGGGS[about 600 residues not listed]

Kd [3]: 263 nM
Kd [4]: 0.69 nM
Kd [5]: 263 nM
Kd [6]: 0.69 nM
EC50 [7]: 1.92 nM
EC50 [8]: 0.73 nM
B3: Human recombinant Fc-IL13 (Control) (Fc fusion)
chain: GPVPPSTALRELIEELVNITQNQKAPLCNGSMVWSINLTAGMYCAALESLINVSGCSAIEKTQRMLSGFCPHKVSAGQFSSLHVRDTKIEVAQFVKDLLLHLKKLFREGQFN

Kd [4]: 30 nM
B4: Fc-MDNA413 (1:2) (Fc fusion)
chain: [human IgG1 Fc with changes not listed]GGGSGGGGSGGGGSPGPVPPSTAVRALIEELINITQNQKAPLCNGSMVWSINRTAGMYCAALESLINVSGCSAIEKTQDMLSGFCPHKVSAGQFSSLHVRSSKIEVAQFVKDLLFHLRTLFREGQFN
